Test results reported in PubChem BioAssay AID686978 (National Center for Advancing Translational Sciences (NCATS), 2013).
Values joined by “and” are separate entries in the source; they are usually repeats but may differ in a detail not shown here. Equal values may be shown once. About 64,000 (15%) of roughly 420,000 compounds were called active. Inconclusive results, whose numbers are uncertain, are shown with a selection of clear calls. Calls come from the whole dose curve; as a rule, active = well fitted inhibition curve with a large enough effect; inconclusive = small, poorly fitted or top-dose-only effect; inactive = flat fitted curve, though single readings scatter. Where the call is inconclusive, the potency comes from a doubtful curve fit.

Assay: qHTS for Inhibitors of human tyrosyl-DNA phosphodiesterase 1 (TDP1): qHTS in cells in absence of CPT; note: nearly all actives have a fitted effect of over 55% in size
Settings: DT40 Tdp1-/- hTDP1 cells, no CPT, ATP luminescence, 48 h; activity change, negative = growth inhibition: at 46.2 µM (top of the series)
Summary of the method: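 Seeded 400 DT40-hTDP1 cells/well (vehicle DMSO, no 20 nM CPT); pinned compounds; ≥48 hr at 37 °C; CellTiter-Glo luminescence as viability measure.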
% is set by controls: 0 for no effect and ±100 for the full control effect; potency is the fitted concentration of half-maximal effect; tags give direction and shape of the fitted curve.

Compound | Potency | activity change, negative = growth inhibition
CCOc1ccccc1NC(=O)Cn1c(=O)oc2cc(S(=O)(=O)NCc3ccccc3)ccc21 | inconclusive: 16.4 µM [inhibitor, single point] | 
CN(CCNC(=O)CN1CCN(Cc2ccccc2Cl)C1=O)Cc1ccccc1 |  | inconclusive: -32.9% [inhibitor]
Cc1cc(NC(=O)C(C)SCC(=O)Nc2cc(Cl)ccc2N2CCN(C)CC2)no1 (stereo not given) |  | inactive: -20.9%
COc1cc(NC(=O)c2ccccc2)c(OC)cc1NC(=O)CSc1[nH]c(=O)cc(C)c1C#N | active: 2.31 µM | 
Cn1c(=O)[nH]c(=O)c2c1nc(Br)n2CCCCSc1nc2ccccc2o1 | active: 18.4 µM | 
N#CC1(NC(=O)COC(=O)/C=C/c2ccc3ccccc3n2)CCCCC1 |  | inactive: -20%
CC1(C)CC2CC(C)(CN2C(=O)COC(=O)c2ccc(Cl)cc2N)C1 (stereo not given) | active: 23.1 µM | 
COCC(C)NC(=O)CSc1nc2cc(S(=O)(=O)N3CCCCC3)ccc2o1 (stereo not given) |  | inactive: -17%
COc1ccc2c(c1)c(C(=O)CN1CCN(Cc3ccccc3)CC1)c(C)n2C | inconclusive: 18.4 µM [inhibitor, single point] | 
CN(Nc1cccc(Cl)c1)c1cccc(Cl)c1 | inconclusive: 13 µM [inhibitor, partial curve] | 
Cc1ccc2c(c1)C1CN(C)CCC1N2C(=S)NC(=O)c1ccc(Cl)cc1Cl (stereo not given) | inconclusive: 18.4 µM [inhibitor, single point] | 
COC(=O)C(OC(=O)c1ccccc1)C(C)Br (stereo not given) |  | inactive: -1.87%
C(#Cc1ccccc1)C[N+]1(CC#Cc2ccccc2)CCCC1 | active: 1.03 µM | 
COc1cc(-c2nc3ccccn3c2N)ccc1O | inconclusive: 25.9 µM [inhibitor, single point] | 
O=C(NCc1ccc(Cl)cc1)c1cc2ccccc2oc1=O |  | inactive: -23.6%
Cc1c(C#N)c(O)n(CCO)c(=O)c1N=Nc1ccc2c(c1)COC2=O | inconclusive: 29.1 µM [inhibitor, single point] | 
COc1cccc(N=Nc2c(C)[nH]n(-c3ccccc3)c2=O)c1 | inconclusive: 29.1 µM [inhibitor, single point] | 
Cc1ccc2nc(C3CCCCC3)c(Cc3cccc(F)c3)n2c1 | inconclusive: 29.1 µM [inhibitor, single point] | 
COc1ccc(NC(=O)COC(=O)CN2C(=O)C3CC=CCC3C2=O)c([N+](=O)[O-])c1 (stereo not given) | inconclusive: 18.4 µM [inhibitor, single point] | 
Cc1csc(NC(=O)CSc2ncnc3c2cnn3-c2ccccc2Cl)n1 | inconclusive: 23.1 µM [inhibitor, single point] | 
Cc1cc(C)cc(-n2c(C)cc(/C=N/NC(=O)c3cccc([N+](=O)[O-])c3C)c2C)c1 | active: 25.9 µM | 
CC1=Nc2cc(C(=O)NCc3ccc(C)cc3)ccc2Sc2ccc(Cl)cc21 | active: 20.6 µM | 
CCN1CCC(N(Cc2cccc(OC)c2)C(=O)Nc2cccc(C)c2C)CC1 | active: 23.1 µM | 
O=C(CSc1nccn1-c1ccc(F)cc1)NCc1ccc(F)cc1 | inconclusive: 20.6 µM [inhibitor, partial curve, poor fit] | 

Compound | Potency | activity change, negative = growth inhibition
CN(CCCNC(=O)c1ccccc1F)CCCNC(=O)c1ccccc1F |  | inactive: 3.01%
CCOc1ccc2nc(N/C(N)=N/C(=S)Nc3cccc(OC)c3)nc(C)c2c1 | inconclusive: 25.9 µM [inhibitor, single point] | 
CC(=O)Nc1c(C)nn(-c2ccccc2)c1N1CCC(C(=O)Nc2ccccc2C(F)(F)F)CC1 |  | inactive: -19.8%
COc1cc(/C=N/NC(=O)c2cccc3ccccc23)cc(OC)c1OC | inconclusive: 11.6 µM [inhibitor, partial curve] | 
O=C(Cn1nc(CNc2ccc(Cl)cc2)[n+]2c1CCCCC2)c1ccccc1 | active: 8.2 µM | 
CCO[C@@H]1OC(C(=O)NCc2ccccc2)=C[C@H](c2ccc(Br)cc2)[C@H]1CCCO | inconclusive: 29.1 µM [inhibitor, single point] | 
CC(C)C(NC(=O)c1ccoc1)c1nnc2n1CCN(Cc1ccc3c(c1)Cc1ccccc1-3)CC2 (stereo not given) | inconclusive: 23.1 µM [inhibitor, single point] | 
O=C(Oc1oc(-c2ccco2)nc1C=Nc1ccccc1)c1ccco1 | active: 4.61 µM | 
COc1cccc(Nc2nc3c(S(=O)(=O)c4cc(C)ccc4C)nnn3c3ccsc23)c1 | inconclusive: 10.3 µM [inhibitor, partial curve] | 
O=c1[nH]n2c(=O)c3c([nH]c2c1N=Nc1cccc(C(F)(F)F)c1)CCCC3 | inconclusive: 25.9 µM [inhibitor, single point] | 
Cc1cc(C)c(NC(=O)CSC2=Nc3ccccc3C3=NC(CC(=O)NCc4cccs4)C(=O)N23)c(C)c1 (stereo not given) | inconclusive: 20.6 µM [inhibitor, single point] | 
O=C1c2ccccc2C(c2nnnn2Cc2ccccc2)N1Cc1ccco1 (stereo not given) |  | inactive: -28.1%
CCCC1NC(=O)c2cccnc2-n2c1nc1ccc(Br)cc1c2=O (stereo not given) | inconclusive: 18.4 µM [inhibitor, single point] | 
O=C(CCCCCN1C(=O)c2ccccc2C1=O)Nc1ccc(C(=O)O)cc1 |  | inactive: -0.918%
Cc1cc(C)cc(NC(=S)N2CCC(NC(=O)c3ccccc3C)CC2)c1 |  | inactive: -18.6%
CCOC(=O)c1ccc(NC(=O)c2nc[nH]c2C(=O)NC[C@H](C)O)cc1 | inconclusive: 14.6 µM [inhibitor, partial curve] | 
COc1ccc(/C=C/C(=O)Nc2ccc(C)cc2)cc1S(=O)(=O)N1CCOCC1 |  | inconclusive: -32.5% [inhibitor]
COc1ccc(CCNC(=O)C2CCN(S(=O)(=O)c3cccc4nsnc34)CC2)cc1OC | inconclusive: 10.3 µM [inhibitor, partial curve, poor fit] | 
Cc1ccc(S(=O)(=O)Nc2ccc3cn[nH]c3c2)cc1 | inconclusive: 18.4 µM [inhibitor, single point] | 
CCN1CCc2nc3sc(C(=O)Nc4ccccc4OC(F)(F)F)c(N)c3cc2C1 | inconclusive: 23.1 µM [inhibitor, single point] | 
CC(=O)Oc1ccc2nc(-c3ccco3)oc(=O)c2c1 | inconclusive: 29.1 µM [inhibitor, single point] | 
Cn1c(=O)c2c(nc(Oc3ccc4c(c3)OCO4)n2Cc2ccc(Br)cc2)n(C)c1=O | inconclusive: 23.1 µM [inhibitor, single point] | 
Cc1nn(-c2ccccc2)c(Cl)c1/C=N/NC(=O)c1ccccc1NS(=O)(=O)c1cccs1 | inconclusive: 13 µM [inhibitor, single point] | 
Cc1ccc(N2CC(C(=O)OCC(=O)Nc3cccc(Cl)c3C)CC2=O)cc1 (stereo not given) | inconclusive: 18.4 µM [inhibitor, single point] | 

Compound | Potency | activity change, negative = growth inhibition
CC(C)c1ccc2c(c1)c(SC(C)(C)C)c(CC(C)(C)C(=O)O)n2Cc1ccc(Cl)cc1 | inconclusive: 11.9 µM [inhibitor, single point] and inconclusive: 20.6 µM [inhibitor, single point] | 
CSc1ccccc1NC(=O)C1=COCCO1 |  | inactive: 22.8%
Clc1ccc(/C=N/c2c(-c3ccc(Cl)cc3)nc3n2CCS3)cc1 | inconclusive: 18.4 µM [inhibitor, partial curve] | 
O=[N+]([O-])c1ccc2c(c1)C(O)n1nc(-c3ccccc3)nc1S2 (stereo not given) |  | inactive: -9.02%
CCOc1ccc(Nc2oc(/C=C/c3ccc(OC)c(OC)c3)nc2C#N)cc1 | inconclusive: 16.4 µM [inhibitor, single point] | 
CC(C)COc1ccc(-c2nn(-c3ccccc3)cc2CO)cc1 | inconclusive: 29.1 µM [inhibitor, single point] | 
Cc1ccc(C=Nc2ccccc2C#N)s1 |  | inactive: -3.22%
O=C(NC1CCN(Cc2ccccc2)CC1)c1ccc(I)cc1 | inactive | 
Cc1cccn2c(=O)c(C(=O)NC(C)c3ccccc3)c(O)nc12 (stereo not given) | inconclusive: 18.4 µM [inhibitor, single point] | 
COCCn1c(=S)[nH]c2cc(C(=O)NCCc3ccccc3)ccc2c1=O | inconclusive: 16.4 µM [inhibitor, single point] | 
O=C(OCC(=O)N1CCOCC1)c1cncc(Br)c1 |  | inactive: 7.3%
CC1CCCCN1C(=O)CSc1nc2ccsc2c(=O)n1Cc1ccccn1 (stereo not given) | inconclusive: 25.9 µM [inhibitor, single point] | 
CC(C)NC(=S)N/N=C/c1c[nH]c2ccccc12 | active: 3.66 µM | 
COc1ccc2c(C)c(CCC(=O)NCc3ccccc3OC)c(=O)oc2c1 |  | inactive: -22.9%
COc1ccc(OC)c(C2C3=C(COC3=O)Nc3cc4c(cc32)OCO4)c1 (stereo not given) | active: 0.146 µM | 
COc1ccc(-n2c(-c3ccc(Cl)cc3)n[nH]c2=S)c(OC)c1 |  | inactive: -3.08%
C[C@@H]1CN([C@@H](C)CO)C(=O)c2cc(NC(=O)CCC(F)(F)F)ccc2O[C@H]1CN(C)Cc1ccc(Cl)c(Cl)c1 | inconclusive: 29.1 µM [inhibitor, single point] | 
COc1ccc(C)cc1-n1nnc(S(=O)(=O)c2ccc(C)cc2)c1C | inconclusive: 25.9 µM [inhibitor, single point] | 
COc1ccc(CNc2oc(/C=C/c3cc(OC)c(OC)c(OC)c3)nc2C#N)cc1 | inconclusive: 25.9 µM [inhibitor, single point] | 
O=C(Cn1c(-c2cccs2)cc2cc(F)ccc21)N1CCN(c2ccccc2)CC1 | inconclusive: 23.1 µM [inhibitor, single point] | 
COC(=O)[C@@H]1C[C@H]1[C@@H](NC(=O)c1ccccc1)c1ccccc1 |  | inactive: 20.4%
Cc1ccc2nc(SCC(=O)N3CCCC3)[nH]c2c1 |  | inactive: -9.69%
